Measured values as given in the BET-seq Pho4 binding data (Le et al. 2018).
Some of the results follow. Values were computed here from the reads of four pooled replicates and scatter widely.

These sequences were tested against T1, Pho4 (S. cerevisiae) (UniProt P07270) (assay: relative binding free energy (BET-seq); higher = weaker binding). Details: reference: library average.
T1 sequence: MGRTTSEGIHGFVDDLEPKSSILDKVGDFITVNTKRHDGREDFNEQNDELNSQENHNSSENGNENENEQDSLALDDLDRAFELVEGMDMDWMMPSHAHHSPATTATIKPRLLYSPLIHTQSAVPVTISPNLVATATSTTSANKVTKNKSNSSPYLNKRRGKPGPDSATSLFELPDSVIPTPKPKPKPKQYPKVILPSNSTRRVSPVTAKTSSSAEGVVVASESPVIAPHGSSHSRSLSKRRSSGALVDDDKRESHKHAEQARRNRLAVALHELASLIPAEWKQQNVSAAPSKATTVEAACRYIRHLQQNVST
In the case of CGGTTCACGTGGATTA, the “relative binding free energy” value is reported as 0.27 kcal/mol.
For TTTGGCACGTGGCTAA, the “relative binding free energy” value was -0.16 kcal/mol.
GGGGTCACGTGGCAAT was tested, and the “relative binding free energy” value was 0.04 kcal/mol.
TCGGACACGTGGTATA was tested, and the “relative binding free energy” value was 0.14 kcal/mol.
For GTCAGCACGTGGTTAG, the “relative binding free energy” value was -0.19 kcal/mol.
With GTTAGCACGTGTCGTC the “relative binding free energy” value was 0.03 kcal/mol.
For GGGGACACGTGTTGTT, the “relative binding free energy” value was 0.09 kcal/mol.
In the case of AATGCCACGTGGAGGT, the “relative binding free energy” value is reported as -0.1 kcal/mol.
For GTGAACACGTGGCGTT, the “relative binding free energy” value was 0 kcal/mol.
ATGCGCACGTGGGCGT was tested, and the “relative binding free energy” value was -0.22 kcal/mol.
GTGGGCACGTGTTGTG was tested, and the “relative binding free energy” value was 0 kcal/mol.
In the case of AAGTGCACGTGTGTAT, the “relative binding free energy” value is reported as -0.06 kcal/mol.
For CGGTGCACGTGGGTTA, the “relative binding free energy” value was -0.19 kcal/mol.
For TGTGACACGTGGTGTT, the “relative binding free energy” value was -0.03 kcal/mol.
In the case of CTAGACACGTGTATGG, the “relative binding free energy” value is reported as 0.08 kcal/mol.
In the case of CGTGGCACGTGACATT, the “relative binding free energy” value is reported as 0.06 kcal/mol.
In the case of TGTAACACGTGTTAGC, the “relative binding free energy” value is reported as -0.06 kcal/mol.
CGGAGCACGTGTGGGC was tested, and the “relative binding free energy” value was -0.01 kcal/mol.
GTAGCCACGTGTTGTG was tested, and the “relative binding free energy” value was 0.03 kcal/mol.
In the case of GTTTGCACGTGATTGC, the “relative binding free energy” value is reported as 0.08 kcal/mol.
TCGGGCACGTGCTTGG was tested, and the “relative binding free energy” value was -0.08 kcal/mol.
ATTGGCACGTGAATAT was tested, and the “relative binding free energy” value was -0.05 kcal/mol.
With TCGCTCACGTGGTGTG the “relative binding free energy” value was 0.11 kcal/mol.
In the case of TGTAGCACGTGGGAAG, the “relative binding free energy” value is reported as -0.2 kcal/mol.
In the case of TTGGACACGTGCTTGA, the “relative binding free energy” value is reported as 0.01 kcal/mol.
For GATGTCACGTGGAGAG, the “relative binding free energy” value was 0.17 kcal/mol.
With GATTACACGTGTTGGA the “relative binding free energy” value was 0.15 kcal/mol.
With TTGAGCACGTGATTTA the “relative binding free energy” value was 0 kcal/mol.
TTCTTCACGTGGTGGT was tested, and the “relative binding free energy” value was 0.23 kcal/mol.
For CCTGGCACGTGTATGT, the “relative binding free energy” value was -0.05 kcal/mol.
GGCAACACGTGGGTCT was tested, and the “relative binding free energy” value was 0.13 kcal/mol.
In the case of GTGCTCACGTGATGAT, the “relative binding free energy” value is reported as 0.43 kcal/mol.
With TGGTACACGTGTTAAG the “relative binding free energy” value was 0.18 kcal/mol.
AGGTGCACGTGTGAAA was tested, and the “relative binding free energy” value was 0.15 kcal/mol.
For ATGAGCACGTGTTTAT, the “relative binding free energy” value was -0.07 kcal/mol.
With AGAATCACGTGGGGTG the “relative binding free energy” value was 0.05 kcal/mol.
For TGGGGCACGTGATATA, the “relative binding free energy” value was 0.16 kcal/mol.
In the case of GGGGTCACGTGGCTTA, the “relative binding free energy” value is reported as 0.14 kcal/mol.
For TTTGGCACGTGACTGC, the “relative binding free energy” value was 0 kcal/mol.
TTAGCCACGTGCGTTG was tested, and the “relative binding free energy” value was -0.12 kcal/mol.
For TGGCGCACGTGTGGGT, the “relative binding free energy” value was -0.01 kcal/mol.
CTCGGCACGTGGTTTA was tested, and the “relative binding free energy” value was -0.09 kcal/mol.
TCGGGCACGTGAGGGG was tested, and the “relative binding free energy” value was 0.19 kcal/mol.
In the case of GGGGGCACGTGGGAAC, the “relative binding free energy” value is reported as -0.23 kcal/mol.
In the case of GTGTTCACGTGTGTCT, the “relative binding free energy” value is reported as 0.3 kcal/mol.
In the case of TTATACACGTGCTGAT, the “relative binding free energy” value is reported as -0.01 kcal/mol.
In the case of TGATGCACGTGCTTGT, the “relative binding free energy” value is reported as -0.03 kcal/mol.
With TAGCACACGTGTAGGG the “relative binding free energy” value was 0.12 kcal/mol.
TTTAGCACGTGGTGAT was tested, and the “relative binding free energy” value was -0.04 kcal/mol.
In the case of TAGTACACGTGGCGGA, the “relative binding free energy” value is reported as -0.01 kcal/mol.
With TTGGGCACGTGAAACG the “relative binding free energy” value was 0.21 kcal/mol.
GGGTTCACGTGACAGG was tested, and the “relative binding free energy” value was 0.49 kcal/mol.
TGTTCCACGTGGCTTT was tested, and the “relative binding free energy” value was 0.05 kcal/mol.
TTCTGCACGTGGTTGA was tested, and the “relative binding free energy” value was -0.14 kcal/mol.
In the case of TGGGGCACGTGCGGGC, the “relative binding free energy” value is reported as -0.13 kcal/mol.
GAGAGCACGTGAGGTT was tested, and the “relative binding free energy” value was 0.22 kcal/mol.
TGTGTCACGTGGATTG was tested, and the “relative binding free energy” value was 0.14 kcal/mol.
With ACTATCACGTGGAGGT the “relative binding free energy” value was 0.16 kcal/mol.
With GTTGTCACGTGTTCTG the “relative binding free energy” value was 0.27 kcal/mol.
For TTAGGCACGTGGTTGA, the “relative binding free energy” value was -0.01 kcal/mol.
With GGTTGCACGTGTATGT the “relative binding free energy” value was 0.11 kcal/mol.
With GGTAACACGTGGTTGC the “relative binding free energy” value was -0.02 kcal/mol.
For TGTTACACGTGCGGGA, the “relative binding free energy” value was 0.06 kcal/mol.
With TGTCGCACGTGGGTCT the “relative binding free energy” value was -0.38 kcal/mol.
TGTTTCACGTGGGAGC was tested, and the “relative binding free energy” value was 0.24 kcal/mol.
For CGTGTCACGTGTGTGG, the “relative binding free energy” value was 0.02 kcal/mol.
TGAGTCACGTGTGTAC was tested, and the “relative binding free energy” value was 0.21 kcal/mol.
With GGGTGCACGTGCCCGG the “relative binding free energy” value was -0.19 kcal/mol.
GATATCACGTGGGCAT was tested, and the “relative binding free energy” value was 0.07 kcal/mol.
With TCTCTCACGTGGTTTT the “relative binding free energy” value was 0.18 kcal/mol.
With GTAGGCACGTGAATGA the “relative binding free energy” value was 0.16 kcal/mol.
GTCGGCACGTGGGGTT was tested, and the “relative binding free energy” value was -0.06 kcal/mol.
For GGGGCCACGTGGGGAT, the “relative binding free energy” value was -0.07 kcal/mol.
TGGGGCACGTGAAATA was tested, and the “relative binding free energy” value was 0.06 kcal/mol.
In the case of TTGATCACGTGGTGTC, the “relative binding free energy” value is reported as -0.01 kcal/mol.
AGGTACACGTGAGTTG was tested, and the “relative binding free energy” value was 0.26 kcal/mol.
With AGCGTCACGTGTGGTA the “relative binding free energy” value was 0.07 kcal/mol.
In the case of CTTGACACGTGGAATG, the “relative binding free energy” value is reported as 0.13 kcal/mol.
In the case of GCATTCACGTGTGTTG, the “relative binding free energy” value is reported as 0.2 kcal/mol.
In the case of CGTTACACGTGTGGGC, the “relative binding free energy” value is reported as 0.1 kcal/mol.
For ACTGTCACGTGTTGGG, the “relative binding free energy” value was 0 kcal/mol.
With GTGGTCACGTGACTAA the “relative binding free energy” value was 0.49 kcal/mol.
GGGAGCACGTGTAACG was tested, and the “relative binding free energy” value was -0.06 kcal/mol.
CAAATCACGTGTGGTG was tested, and the “relative binding free energy” value was 0.18 kcal/mol.
TAGTTCACGTGTTGTT was tested, and the “relative binding free energy” value was 0.32 kcal/mol.
GACGTCACGTGTTGGT was tested, and the “relative binding free energy” value was 0.26 kcal/mol.
With ATGTTCACGTGGAGCG the “relative binding free energy” value was 0.31 kcal/mol.
GTGTCCACGTGTGCGT was tested, and the “relative binding free energy” value was -0.07 kcal/mol.
CATGGCACGTGGGGCC was tested, and the “relative binding free energy” value was -0.1 kcal/mol.
In the case of GAATGCACGTGATGTA, the “relative binding free energy” value is reported as 0.34 kcal/mol.
In the case of TGTGGCACGTGTGGAG, the “relative binding free energy” value is reported as -0.07 kcal/mol.
In the case of GTGAGCACGTGCCGGG, the “relative binding free energy” value is reported as -0.06 kcal/mol.
In the case of ATGTGCACGTGATTTG, the “relative binding free energy” value is reported as 0.01 kcal/mol.
In the case of GGTATCACGTGATTGT, the “relative binding free energy” value is reported as 0.27 kcal/mol.
GTACGCACGTGGGTAT was tested, and the “relative binding free energy” value was -0.16 kcal/mol.
In the case of GTTTGCACGTGGGCTT, the “relative binding free energy” value is reported as -0.11 kcal/mol.
In the case of GATTACACGTGAAAGT, the “relative binding free energy” value is reported as 0.51 kcal/mol.
AAGAGCACGTGGTGGT was tested, and the “relative binding free energy” value was -0.09 kcal/mol.
In the case of GGCTTCACGTGTGTGA, the “relative binding free energy” value is reported as 0.24 kcal/mol.
With TTAATCACGTGTGACG the “relative binding free energy” value was 0.17 kcal/mol.
In the case of TATGTCACGTGACTTT, the “relative binding free energy” value is reported as 0.16 kcal/mol.
With AGACGCACGTGGTAAG the “relative binding free energy” value was -0.03 kcal/mol.
With AGGTCCACGTGCGGGT the “relative binding free energy” value was 0 kcal/mol.
In the case of CCGGGCACGTGGGGGC, the “relative binding free energy” value is reported as -0.23 kcal/mol.
With CTTAGCACGTGAGGGC the “relative binding free energy” value was 0.33 kcal/mol.
For TTACTCACGTGTTTGT, the “relative binding free energy” value was 0.13 kcal/mol.
With TGGCACACGTGGTTAG the “relative binding free energy” value was -0.11 kcal/mol.
With ATTCGCACGTGGTGAT the “relative binding free energy” value was -0.07 kcal/mol.
For GGGAGCACGTGAAGAG, the “relative binding free energy” value was 0.05 kcal/mol.
In the case of TGCTTCACGTGGTTGC, the “relative binding free energy” value is reported as 0.23 kcal/mol.
With ATATGCACGTGGAGAT the “relative binding free energy” value was -0.08 kcal/mol.
With TTAGACACGTGGGGAG the “relative binding free energy” value was -0.17 kcal/mol.
For TTATGCACGTGAGGTT, the “relative binding free energy” value was 0.27 kcal/mol.
TATTCCACGTGGTTGA was tested, and the “relative binding free energy” value was -0.02 kcal/mol.
With AAGTTCACGTGTTTGC the “relative binding free energy” value was 0.19 kcal/mol.
